# Reference: the supplement of paper PMC8728848
# Some of the results follow.
# Assays:
# Test in all cases: glycan array binding signal (z-score within array); higher = stronger binding
# Conditions in all cases: glycan notation: IUPAC condensed, linker removed
# [1] = biological target: Fuc(a1-2)Gal6S(b1-3)GlcNAc
# Summary of the method: (§1)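 Glycan array data came from 3228 arrays in the Consortium for Functional Glycomics database, and only arrays with an available protein sequence were kept. Glycan names were put into IUPAC-condensed notation, and columns mapping to the same glycan were averaged. The binding signal is a within-array Z-score, averaged across arrays of one protein sequence run at different concentrations or buffers and across linkers. A negative Z-score can be read as non-binding.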
# [2] = biological target: Fuc(a1-2)Gal6S(b1-3)GlcNAc6S
# Summary of the method: as §1
# Fuc(a1-2)Gal6S(b1-4)Glc = biological target: Fuc(a1-2)Gal6S(b1-4)Glc
# Summary of the method: as §1
# [3] = biological target: Fuc(a1-2)Gal6S(b1-4)Glc6S
# Summary of the method: as §1
# Fuc(a1-2)[Gal(a1-3)]Gal = biological target: Fuc(a1-2)[Gal(a1-3)]Gal
# Summary of the method: as §1
# [4] = biological target: Fuc(a1-2)[Gal(a1-3)]Gal(b1-3)GalNAc
# Summary of the method: as §1
# [5] = biological target: Fuc(a1-2)[Gal(a1-3)]Gal(b1-3)GalNAc(b1-3)Gal(a1-4)Gal(b1-4)Glc
# Summary of the method: as §1
# [6] = biological target: Fuc(a1-2)[Gal(a1-3)]Gal(b1-3)GlcNAc
# Summary of the method: as §1
# [7] = biological target: Fuc(a1-2)[Gal(a1-3)]Gal(b1-3)GlcNAc(b1-2)Man(a1-3)[Fuc(a1-2)[Gal(a1-3)]Gal(b1-3)GlcNAc(b1-2)Man(a1-6)]Man(b1-4)GlcNAc(b1-4)GlcNAc
# Summary of the method: as §1
# [8] = biological target: Fuc(a1-2)[Gal(a1-3)]Gal(b1-3)GlcNAc(b1-2)Man(a1-3)[Fuc(a1-2)[Gal(a1-3)]Gal(b1-3)GlcNAc(b1-2)Man(a1-6)]Man(b1-4)GlcNAc(b1-4)[Fuc(a1-6)]GlcNAc
# Summary of the method: as §1
# [9] = biological target: Fuc(a1-2)[Gal(a1-3)]Gal(b1-3)GlcNAc(b1-3)GalNAc
# Summary of the method: as §1
# [10] = biological target: Fuc(a1-2)[Gal(a1-3)]Gal(b1-3)GlcNAc(b1-6)GalNAc
# Summary of the method: as §1
# [11] = biological target: Fuc(a1-2)[Gal(a1-3)]Gal(b1-4)Glc
# Summary of the method: as §1
# [12] = biological target: Fuc(a1-2)[Gal(a1-3)]Gal(b1-4)GlcNAc
# Summary of the method: as §1
# [13] = biological target: Fuc(a1-2)[Gal(a1-3)]Gal(b1-4)GlcNAc(b1-2)Man
# Summary of the method: as §1
# [14] = biological target: Fuc(a1-2)[Gal(a1-3)]Gal(b1-4)GlcNAc(b1-2)Man(a1-3)[Fuc(a1-2)[Gal(a1-3)]Gal(b1-4)GlcNAc(b1-2)Man(a1-6)]Man(b1-4)GlcNAc(b1-4)GlcNAc
# Summary of the method: as §1
# [15] = biological target: Fuc(a1-2)[Gal(a1-3)]Gal(b1-4)GlcNAc(b1-2)Man(a1-3)[Fuc(a1-2)[Gal(a1-3)]Gal(b1-4)GlcNAc(b1-2)Man(a1-6)]Man(b1-4)GlcNAc(b1-4)[Fuc(a1-6)]GlcNAc
# Summary of the method: as §1
# [16] = biological target: Fuc(a1-2)[Gal(a1-3)]Gal(b1-4)GlcNAc(b1-3)GalNAc
# Summary of the method: as §1
# [17] = biological target: Fuc(a1-2)[Gal(a1-3)]Gal(b1-4)GlcNAc(b1-3)[Fuc(a1-2)[Gal(a1-3)]Gal(b1-4)GlcNAc(b1-6)]GalNAc
# Summary of the method: as §1
# [18] = biological target: Fuc(a1-2)[Gal(a1-3)]Gal(b1-4)GlcNAc(b1-6)GalNAc
# Summary of the method: as §1
# [19] = biological target: Fuc(a1-2)[Gal(a1-3)]Gal(b1-4)[Fuc(a1-3)]Glc
# Summary of the method: as §1
# [20] = biological target: Fuc(a1-2)[Gal(a1-3)]Gal(b1-4)[Fuc(a1-3)]GlcNAc
# Summary of the method: as §1
# [21] = biological target: Fuc(a1-2)[Gal(a1-3)]Gal(b1-4)[Fuc(a1-3)]GlcNAc(b1-3)GalNAc
# Summary of the method: as §1
# [22] = biological target: Fuc(a1-2)[Gal(a1-4)]Gal(b1-4)GlcNAc
# Summary of the method: as §1
# [23] = biological target: Fuc(a1-2)[GalNAc(a1-3)]Gal
# Summary of the method: as §1
# [24] = biological target: Fuc(a1-2)[GalNAc(a1-3)]Gal(b1-3)GalNAc(a1-3)[Fuc(a1-2)]Gal(b1-4)GlcNAc
# Summary of the method: as §1
# [25] = biological target: Fuc(a1-2)[GalNAc(a1-3)]Gal(b1-3)GalNAc(b1-3)Gal(a1-4)Gal(b1-4)Glc
# Summary of the method: as §1
# [26] = biological target: Fuc(a1-2)[GalNAc(a1-3)]Gal(b1-3)GlcNAc
# Summary of the method: as §1
# [27] = biological target: Fuc(a1-2)[GalNAc(a1-3)]Gal(b1-3)GlcNAc(b1-2)Man(a1-3)[Fuc(a1-2)[GalNAc(a1-3)]Gal(b1-3)GlcNAc(b1-2)Man(a1-6)]Man(b1-4)GlcNAc(b1-4)GlcNAc
# Summary of the method: as §1
# [28] = biological target: Fuc(a1-2)[GalNAc(a1-3)]Gal(b1-3)GlcNAc(b1-2)Man(a1-3)[Fuc(a1-2)[GalNAc(a1-3)]Gal(b1-3)GlcNAc(b1-2)Man(a1-6)]Man(b1-4)GlcNAc(b1-4)[Fuc(a1-6)]GlcNAc
# Summary of the method: as §1
# [29] = biological target: Fuc(a1-2)[GalNAc(a1-3)]Gal(b1-3)GlcNAc(b1-3)GalNAc
# Summary of the method: as §1
# [30] = biological target: Fuc(a1-2)[GalNAc(a1-3)]Gal(b1-3)GlcNAc(b1-6)GalNAc
# Summary of the method: as §1
# [31] = biological target: Fuc(a1-2)[GalNAc(a1-3)]Gal(b1-4)Glc
# Summary of the method: as §1
# [32] = biological target: Fuc(a1-2)[GalNAc(a1-3)]Gal(b1-4)GlcNAc
# Summary of the method: as §1
# [33] = biological target: Fuc(a1-2)[GalNAc(a1-3)]Gal(b1-4)GlcNAc(b1-2)Man
# Summary of the method: as §1
# [34] = biological target: Fuc(a1-2)[GalNAc(a1-3)]Gal(b1-4)GlcNAc(b1-2)Man(a1-3)[Fuc(a1-2)[GalNAc(a1-3)]Gal(b1-4)GlcNAc(b1-2)Man(a1-6)]Man(b1-4)GlcNAc(b1-4)GlcNAc
# Summary of the method: as §1
# [35] = biological target: Fuc(a1-2)[GalNAc(a1-3)]Gal(b1-4)GlcNAc(b1-2)Man(a1-3)[Fuc(a1-2)[GalNAc(a1-3)]Gal(b1-4)GlcNAc(b1-2)Man(a1-6)]Man(b1-4)GlcNAc(b1-4)[Fuc(a1-6)]GlcNAc
# Summary of the method: as §1
# [36] = biological target: Fuc(a1-2)[GalNAc(a1-3)]Gal(b1-4)GlcNAc(b1-3)Gal(b1-4)GlcNAc
# Summary of the method: as §1
# [37] = biological target: Fuc(a1-2)[GalNAc(a1-3)]Gal(b1-4)GlcNAc(b1-3)Gal(b1-4)GlcNAc(b1-3)Gal(b1-4)GlcNAc
# Summary of the method: as §1
# [38] = biological target: Fuc(a1-2)[GalNAc(a1-3)]Gal(b1-4)GlcNAc(b1-3)GalNAc
# Summary of the method: as §1
# [39] = biological target: Fuc(a1-2)[GalNAc(a1-3)]Gal(b1-4)GlcNAc(b1-3)[Fuc(a1-2)[GalNAc(a1-3)]Gal(b1-4)GlcNAc(b1-6)]GalNAc
# Summary of the method: as §1
# [40] = biological target: Fuc(a1-2)[GalNAc(a1-3)]Gal(b1-4)GlcNAc(b1-6)GalNAc
# Summary of the method: as §1
# [41] = biological target: Fuc(a1-2)[GalNAc(a1-3)]Gal(b1-4)[Fuc(a1-3)]GlcNAc
# Summary of the method: as §1
# [42] = biological target: Fuc(a1-2)[GalNAc(a1-3)]Gal(b1-4)[Fuc(a1-3)]GlcNAc(b1-3)GalNAc
# Summary of the method: as §1
# [43] = biological target: Fuc(a1-2)[GalNAc(a1-4)]Gal(b1-4)GlcNAc
# Summary of the method: as §1
binder,measurement,setting,value
"PVL (Psathyrella velutina), Q309D1_9AGAR (protein) MSVVVISQALPVPTRIPGVADLVGFGNGGVYIIRNSLLIQVVKVINNFGYDAGGWRVEKHVRLLADTTGDNQPDVVGFGENGVWISTNNGNNTFVDPPKMVLANFAYAAGGWRVEKHIRFMADLRKTGRADIVGFGDGGIYISRNNGGGQFAPAQLALNNFGYAQGWRLDRHLRFLADVTGDGLLDVVGFGENQVYIARNSGNGTFQPAQAVVNNFCIGAGGWTISAHPRVVADLTGDRKADILGFGVAGVYTSLNNGNGTFGAVNLVLKDFGVNSGWRVEKHVRCVSSLTNKKVGDIIGFGDAGVYVALNNGNGTFGPVKRVIDNFGYNQGWRVDKHPRFVVDLTGDGCADIVGFGENSVWACMNKGDGTFGPIMKLIDDMTVSKGWTLQKTVRYAANLYL",glycan array binding signal (z-score),[1],-0.364
same,glycan array binding signal (z-score),[2],-0.319
same,glycan array binding signal (z-score),Fuc(a1-2)Gal6S(b1-4)Glc,-0.355
same,glycan array binding signal (z-score),[3],-0.369
same,glycan array binding signal (z-score),Fuc(a1-2)[Gal(a1-3)]Gal,-0.368
same,glycan array binding signal (z-score),[4],-0.368
same,glycan array binding signal (z-score),[5],-0.314
same,glycan array binding signal (z-score),[6],-0.368
same,glycan array binding signal (z-score),[7],-0.379
same,glycan array binding signal (z-score),[8],-0.351
same,glycan array binding signal (z-score),[9],-0.368
same,glycan array binding signal (z-score),[10],-0.368
same,glycan array binding signal (z-score),[11],-0.359
same,glycan array binding signal (z-score),[12],-0.363
same,glycan array binding signal (z-score),[13],-0.372
same,glycan array binding signal (z-score),[14],-0.358
same,glycan array binding signal (z-score),[15],-0.366
same,glycan array binding signal (z-score),[16],-0.361
same,glycan array binding signal (z-score),[17],-0.323
same,glycan array binding signal (z-score),[18],-0.371
same,glycan array binding signal (z-score),[19],-0.366
same,glycan array binding signal (z-score),[20],-0.361
same,glycan array binding signal (z-score),[21],-0.368
same,glycan array binding signal (z-score),[22],-0.366
same,glycan array binding signal (z-score),[23],-0.347
same,glycan array binding signal (z-score),[24],-0.36
same,glycan array binding signal (z-score),[25],-0.375
same,glycan array binding signal (z-score),[26],-0.281
same,glycan array binding signal (z-score),[27],-0.357
same,glycan array binding signal (z-score),[28],-0.363
same,glycan array binding signal (z-score),[29],-0.353
same,glycan array binding signal (z-score),[30],-0.372
same,glycan array binding signal (z-score),[31],-0.766
same,glycan array binding signal (z-score),[32],-0.408
same,glycan array binding signal (z-score),[33],-0.357
same,glycan array binding signal (z-score),[34],-0.355
same,glycan array binding signal (z-score),[35],-0.346
same,glycan array binding signal (z-score),[36],-0.246
same,glycan array binding signal (z-score),[37],-0.017
same,glycan array binding signal (z-score),[38],-0.364
same,glycan array binding signal (z-score),[39],-0.153
same,glycan array binding signal (z-score),[40],-0.392
same,glycan array binding signal (z-score),[41],-0.612
same,glycan array binding signal (z-score),[42],-0.364
same,glycan array binding signal (z-score),[43],-0.335
